# Assay results: PubChem BioAssay AID588855 (National Center for Advancing Translational Sciences (NCATS), 2011)
# About 5,000 (1.2%) of roughly 410,000 compounds were called active. This list was built around the results that the source calls inconclusive (neither active nor inactive); the mix of calls is not that of the screen. Calls come from the whole dose curve; as a rule, active = well fitted inhibition curve with a large enough effect; inconclusive = small, poorly fitted or top-dose-only effect; inactive = no such curve, though single readings can be large or run the other way. A potency beside an inconclusive call is a rough fit, not a confirmed value.
# Assay: qHTS for Inhibitors of TGF-b; note: nearly all actives have a fitted effect of over 65% in size
# Conditions: HepG2 CAGA-GFP TGF-b/SMAD3 reporter, GFP fluorescence, 18 h, TGF-beta stimulated, 500 pg/mL final; series mostly up to 46.1 µM
# Source text: TGF-b is a main component in the TGF-b signaling pathway which plays diverse roles in cellular and development pathways. TGF-b is the mediated by the transcription factors Smads. Although the Smad-dependent pathway is the primary canonical TGF-b signaling node, TGF-b1 can also activate alternative signaling pathways, including those involving MAPK (ERK, JNK and p38). This interaction may mediate or enhance Smad-dependent responses, or can exert Smad-independent effects. The complexity of this signaling cascade allows the TGF-b superfamily to perform unique, overlapping or redundant functions. We believe that targeting the TGF-beta pathway at the Smad-transcription factor level may eliminate the consequences of disrupting the entire pathway and offer specificity without affecting other signaling pathways. Smad3 is the primary transducer of TGF-b's signals and Smad3 regulates many functions attributed to TGF-b signaling. We hypothesize that Smad3 inhibitors will selectively eliminate Smad3-specific TGF-beta signals without undesired off-target effects. We aim to identify Smad3-small molecule antagonists using a quantitative high throughput screening (qHTS) approach.
# A high-throughput assay was developed to screen the NIH Molecular Libraries Small Molecule Repository (MLSMR). This is a cell based assay, where TGF-b is tagged with GFP. A counterscreen is run that looks at cytotoxicity (please see summary AID).
# MH087449NIH Chemical Genomics Center [NCGC]
# NIH Molecular Libraries Probe Centers Network [MLPCN]
# Assay Submitter (PI): Sushil Rane, National Institute of […]
# Suspensions of trypsinized HEPG2 CAGA-GFP cells were dispensed into white, tissue culture-treated, solid 1536-well plates at 5uL/well (1000 cells/well final concentration) in DMEM medium supplemented with 1% FBS. Plates were incubated at 37 degrees C for 2 hours, after which 23 nL of compounds or DMSO were delivered to each well using a pin tool. One uL of recombinant TGF-beta in DMEM (1% FBS) was then dispensed (500 pg/mL final concentration), and plates were incubated at 37 degrees C for 18 hours. The plates were measured on an Acumen eX3 Explorer plate reader for GFP fluorescence (ex488/em500-530). GFP values were calculated by determining the mean GFP fluorescence of individual cells, and compiling these values for each well to determine a total well GFP signal. The %Activity was determined from the corrected fluorescence values. A titration of the known TGF-B inhibitor SB431542 was included to monitor plate performance, while unstimulated HEPG2 (-TGF-B) control wells were used to normalize %Activity of identified inhibitors; unstimulated wells corresponded to 100%Activity (full inhibition), while stimulated cell controls (+DMSO) were used to normalize 0%Activity (no inhibition).
# Concentration-response curves were fitted to the signals arising from the resulting fluorescence. The concentration-effect curves were then classified based on curve quality (r2), response magnitude and degree of measured activity, and compounds were subsequently categorized based on their curve class.
# Potency is the fitted concentration of half-maximal effect; tags give direction and shape of the fitted curve.
row,Structure (SMILES),Potency
1,CCCCNC(=O)CSc1nc2ccc(NC(=O)CSc3nnc(N)s3)cc2s1,"inconclusive: 1.58 µM [inhibitor, full curve, poor fit]"
2,COc1cccc(C(C)(O)c2nc(-c3cccc4cccnc34)cs2)c1 (stereo not drawn),inactive
3,COc1cc(/C=C/c2ccc3cccc(O)c3n2)cc(OC)c1OC,"inconclusive: 3.55 µM [inhibitor, partial curve, poor fit]"
4,CCCC[n+]1ccn(-c2nc3ccccc3nc2[N-]S(=O)(=O)c2ccccc2)c1,inactive
5,COc1ccc(N2CC(O)(c3ccc(F)cc3)[N+]3=C2CCCC3)cc1 (stereo not drawn),inactive
6,Cc1ccccc1S(=O)(=O)N1[C@@H](c2ccccc2)C(C(=O)O)=CC[C@H]1c1ccc(Cl)cc1,"inconclusive: 22.4 µM [inhibitor, single point]"
7,CC1CCC(NC(=O)c2ccc(CSc3nc4ccncc4n3Cc3ccc(F)cc3)cc2)CC1 (stereo not drawn),active: 3.55 µM
8,CCn1c(SCC(=O)Nc2oc(C)c3c(C)n[nH]c(=O)c23)nc2sc(C)c(C)c2c1=O,inactive
9,COc1ccc(-n2c(SCCC(C)C)nc3sc4c(c3c2=O)CC(C(C)C)OC4)cc1 (stereo not drawn),inactive
10,COc1cccc(C(=O)Nc2cccc(-c3nnc(-c4ccco4)o3)c2)c1,"inconclusive: 20 µM [inhibitor, single point]"
11,COc1cccc(NC(=S)N(CCc2c(C)[nH]c3ccccc23)Cc2ccco2)c1,"inconclusive: 35.5 µM [inhibitor, single point]"
12,Cc1cc(NS(=O)(=O)c2ccc(NC(=O)COc3ccc(C#N)cc3)cc2)nc(C)n1,inactive
13,COc1cc(NC(=O)c2noc3c2CC(C)CC3)c(OC)cc1Cl (stereo not drawn),inactive
14,CCOC(=O)[C@@H]1[C@H]2COc3ccccc3[C@H]2N2C(=O)N(c3ccc(C(F)(F)F)cc3)C(=O)[C@]12C,"inconclusive: 22.4 µM [inhibitor, single point]"
15,NC(c1ccccc1)c1csc(Nc2ccc(C(=O)c3ccccc3)cc2)n1 (stereo not drawn),"inconclusive: 35.5 µM [inhibitor, single point]"
16,CCc1ccc(NC(=O)c2cc(S(=O)(=O)NC3CCCCCC3)ccc2F)cc1,"inconclusive: 22.4 µM [inhibitor, single point]"
17,Cc1nn(-c2ccccc2)c2c1N(CCCC(=O)NC(C)c1ccccc1)C(=O)CS2 (stereo not drawn),"inconclusive: 35.5 µM [inhibitor, partial curve, poor fit]"

row,Structure (SMILES),Potency
1,CCN1C[C@@H]2[C@@H]3C(=O)N(C)C(=O)[C@@H]3[C@](C)(C1=O)N2C(=O)c1ccc(Br)cc1,"inconclusive: 1.26 µM [inhibitor, full curve, poor fit]"
2,CN(C)CCCN=c1cc(-c2ccccc2)oc2ccc(Cl)cc12,"inconclusive: 31.6 µM [inhibitor, single point]"
3,Cc1ccccc1CN(C)C(=O)CNC(=O)c1ccc2ccccc2c1,"inconclusive: 5.01 µM [inhibitor, partial curve, poor fit]"
4,N#Cc1c(-n2cccc2/C=N/O)sc2c1CCCC2,"inconclusive: 17.8 µM [inhibitor, single point]"
5,Cc1nn(-c2ccccc2)c2c1N(CC(=O)N1CCN(c3ccc(Cl)cc3)CC1)C(=O)CS2,"inconclusive: 0.316 µM [inhibitor, full curve]"
6,CCCCNc1c(-c2cccc(-c3ccc(OC)cc3)c2)nc2ccc(C)cn12,"inconclusive: 35.5 µM [inhibitor, single point]"
7,CSCCc1nc(SCC(=O)Nc2nnc(C)s2)[nH]c1C,"inconclusive: 3.55 µM [inhibitor, single point]"
8,CCOc1ccccc1OCC(=O)Nc1ccc(N2CCOCC2)cc1N1CCOCC1,"inconclusive: 0.891 µM [inhibitor, full curve, poor fit]"
9,Cc1ccsc1CN(C)CC(=O)NCC(=O)Nc1ccc(F)c(F)c1F,"inconclusive: 22.4 µM [inhibitor, single point]"
10,CCCn1c(C(C)Nc2nc(-c3ccc(Cl)c([N+](=O)[O-])c3)cs2)nc2ccccc21 (stereo not drawn),"inconclusive: 35.5 µM [inhibitor, single point]"
11,Cc1ccc2c(C)nc(Nc3nc(CSc4nnnn4-c4ccccc4)cc(=O)[nH]3)nc2c1,"inconclusive: 35.5 µM [inhibitor, single point]"
12,S=C(Nc1ccccn1)c1ccccn1,active: 7.08 µM
13,Cc1cc(NC(=O)CCC(=O)N(c2cccc(F)c2)C(C(=O)NC2CCCC2)c2ccccc2)no1 (stereo not drawn),"inconclusive: 7.94 µM [inhibitor, partial curve, poor fit]"
14,CCOc1ccc(C(=O)/C=C/Nc2ccc(S(=O)(=O)N=C(N)N)cc2)cc1,active: 20 µM
15,CCCNCC1C(Oc2ccc(Cl)cc2Cl)C(=O)N1c1cccc(C)c1C (stereo not drawn),"inconclusive: 35.5 µM [inhibitor, partial curve, poor fit]"
16,CCN1CCN(c2ccc(NC(=O)c3ccc4c(c3)[nH]c(=O)n4Cc3ccc(F)cc3)cc2)CC1,inactive
